In the supplement of paper PMC10126150:
Sequences with one replicate were seen in a single cluster, so their values are uncertain.

System: ATP
Assay: switch fluorescence ratio, 500 uM ATP over buffer (Cy3 cluster intensity, sum of 5 cycles each) (fold (ratio)); higher = stronger signal-on switching upon ATP binding; sequences stand for … in TCGTCGGCAGCGTCAGATGTGTATAAGAGACAGTTTTTTTTTTTTTTTTTTTTTTTTT…TC
Settings: aptamer strand: ATP DNA aptamer (quencher-CACCTGGGGGAGTATTGCGGAGGAAGG + anchor), 100 nM annealed; ATP concentration: 500 uM; one replicate
Summary of the method: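 Cy3-labelled switching-strand clusters on a modified Illumina MiSeq flow-cell were annealed to 100 nM quencher-labelled ATP aptamer, imaged in selection buffer, then imaged after 15 min with 500 uM ATP at 22 °C. Five buffer/ATP cycles ran, with NaOH stripping and re-annealing between them. The fluorescence ratio is summed target-cycle over summed buffer-cycle Cy3 intensity per cluster, averaged per switch-domain sequence. Clusters outside 100-1000 RFU were excluded.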
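Further: ATP exposure 15 min at 22 °C before imaging.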

Sequence | switch fluorescence ratio
GGATACAGCG | 0.999
CATGTCACCG | 0.985
CGTTCTAGGC | 0.982
CATGGCGGTG | 1
TGACGGGTCG | 1
AAAAGATAGA | 0.972
GTCTGAGGCC | 0.991
TAACGTTTGA | 1.03
CTGGGAAGGT | 1.03
GCGTTGATGC | 1.03
CTTGCGGTAA | 1.12
CACGTCTGGT | 0.991
AGGAATTTAA | 1.02
TTCATTGGAT | 0.988
CATGAGTGGC | 1.11
GTTGTGATTG | 1.02
CCTGGCTCAG | 1.08
GCTCAATGTA | 0.955
ACAGTTTAAA | 0.995
TTCCTGGGAC | 1.07
GAAAACCGAA | 1.08
GGATAGGCT | 1.01
AAGTTTGGCT | 1

Sequence | switch fluorescence ratio
TTTCTTCGAA | 1.02
CTCAGAATCT | 1.02
TGGTTATAGT | 0.986
ATATCATCCC | 1.09
TTTTAAAGT | 1.01
AACGAGTTT | 0.999
TCTTTGACCG | 1
TCCCCTGTCC | 1.1
TTCACGGGTG | 1.46
CACATTTTGA | 0.998
GTTACATTTA | 1.14
TAACCACTCG | 0.99
AGATGCAAGC | 1.1
AATTGGTGTG | 0.988
CATTGTATGA | 0.965
ACCAGATCAT | 1.01
TAGTGGTCTT | 1
AGGATTTACA | 0.971
TCACGATGAT | 1.05
GCCTCCTGGT | 0.947
GGGGACAGAC | 1.07
AGTCATAAAC | 1
TTATCGACCT | 1.37

Sequence | switch fluorescence ratio
AGGGACAATG | 1.04
TAGTATAAAT | 0.997
CGTTCACCGT | 1.01
GGCTTAACGT | 0.995
TTGAGGTGTT | 1.05
CCAATCAGGA | 0.979
TAAAGTAAGG | 0.993
TTCCTGTTGA | 1.03
GTTTTACAT | 1.01
TGATGTGCGG | 0.987
GGCCTGTGAC | 0.973
TGACTAAGGG | 0.968
AAGGTCAGCC | 0.979
TCCATCCCT | 1.06
CGCGGCCAGC | 0.967
GACTACCTTT | 1.05
GGGACCCAGT | 1.04
AGTTAAATAG | 1
CAGTGCCTTC | 1.04
AGTGACTAA | 1
TATTTGAGGC | 0.989
GCAAATACTG | 1.6
TCTCACCAGC | 0.982

Sequence | switch fluorescence ratio
CTTCACAGAA | 0.993
TAAATAATGA | 1.01
GGGTAGCACG | 1.02
TGTTAGCGAG | 1.03
GCCGGCGACG | 0.991
AGTCCGCTTT | 1.78
TCGCTGTCGG | 1.01
TCGGAGGCGT | 1.04
ATCGCAGCGT | 0.977
AAGTGTTTC | 1.04
CCTTTTCCAC | 1.04
TATGCTATGG | 1.01
TTTCATTTT | 1.01
GCTACTTGCG | 1.01
CTCAACCGGT | 0.989
GATGGATCG | 0.959
ACCCGGAC | 1.05
GTCGACGTGG | 1.01
TTACTTGTC | 1.25
ATTCTATTGC | 1.05
CGTAGGGGCG | 0.888
CTGTCTGAGG | 1.04
CATTGCAGGT | 1.03

Sequence | switch fluorescence ratio
ATCGTGCGAG | 0.94
TCGGTAACGC | 1.11
GAGAGAGTC | 0.924
TCCTACCCAG | 1.38
CTCGCCGCAT | 2.25
AGAATGATA | 1.05
CGTTTACAGC | 0.994
TCCAGCAGTG | 1.19
TGGGTTTAAG | 1.01
TATTGGACCG | 0.967
TGGGTTATAA | 0.989
CACGTCACTG | 1.61
CGGCTATAGG | 0.976
ATACCCCTGT | 1.08
GTGAATAGGA | 0.998
TGCAGATTAT | 0.979
AGGTTATCGC | 1
CTCGACCCCC | 1.5
TACAATCTTC | 1.05
TATGCAAACC | 1.12
TTTTTCCTT | 1.03
TCCTT | 0.987
TGTCTCATTT | 0.971

Sequence | switch fluorescence ratio
GACGTACGGG | 1.48
ACCGGCTCTA | 1.04
GTAGAGCTCG | 0.999
GACGCCCAAA | 1.33
ATTACGTCTT | 1.02
GGACCAAAGC | 1.02
GCAGACTGAG | 0.998
TAGTAGCGAG | 0.955
CGTTTTAGTG | 0.962
GCAGGAGTTC | 1
ACAAGGGTCT | 1.02
CGTGAATGAA | 0.955
GGCAATTAT | 1.06
TTTCTGAGTC | 1.04
CGTAACCTGA | 1.43
GGAGCAAAGA | 1.97
TAAACCGCGT | 1.09
TTCTGTTCCT | 0.992
ATATCCGTGC | 1.11
GACCGCCGAT | 1.11
AAACTCCATA | 1.07
CTGCAATAAA | 3.61
GAGCCAAGCA | 1

Sequence | switch fluorescence ratio
TCCAAGCACC | 1.64
CTATTACTAC | 1.02
TGCGTTTTGC | 1.03
CGCCCAGGTT | 3.83
GATGGACGGG | 1.03
GCTCTGCAGG | 1.43
TTCGCTCTAG | 1.03
CCAATGATCG | 0.998
CGATATCAGT | 0.96
CCTATTAGGC | 0.887
TCAGCCTCGC | 1
ATATCCGCAG | 3.06
TCCGCGGAGT | 1.07
TCCAGACCG | 1.06
ATGCCCGCGG | 1
GGTTGCCGAC | 0.962
ACCAACAAAG | 1.06
TAGTCGGATA | 0.948
TAGGAGAGG | 1.01
ATGAAAGATA | 1.01
